The whole screen tested about 310,000 compounds, of which about 2,200 (0.71%) showed an effect of 50% or more. Effects have a minus sign here. The list shows a part of the results.
The compounds below were run against human ether-à-go-go-related gene (hERG) potassium channel (human, UniProt Q12809) (assay: primary screen, population patch clamp on CHO cells stably expressing hERG).
Sequence of human ether-à-go-go-related gene (hERG) potassium channel (Q12809 whole entry, looked up): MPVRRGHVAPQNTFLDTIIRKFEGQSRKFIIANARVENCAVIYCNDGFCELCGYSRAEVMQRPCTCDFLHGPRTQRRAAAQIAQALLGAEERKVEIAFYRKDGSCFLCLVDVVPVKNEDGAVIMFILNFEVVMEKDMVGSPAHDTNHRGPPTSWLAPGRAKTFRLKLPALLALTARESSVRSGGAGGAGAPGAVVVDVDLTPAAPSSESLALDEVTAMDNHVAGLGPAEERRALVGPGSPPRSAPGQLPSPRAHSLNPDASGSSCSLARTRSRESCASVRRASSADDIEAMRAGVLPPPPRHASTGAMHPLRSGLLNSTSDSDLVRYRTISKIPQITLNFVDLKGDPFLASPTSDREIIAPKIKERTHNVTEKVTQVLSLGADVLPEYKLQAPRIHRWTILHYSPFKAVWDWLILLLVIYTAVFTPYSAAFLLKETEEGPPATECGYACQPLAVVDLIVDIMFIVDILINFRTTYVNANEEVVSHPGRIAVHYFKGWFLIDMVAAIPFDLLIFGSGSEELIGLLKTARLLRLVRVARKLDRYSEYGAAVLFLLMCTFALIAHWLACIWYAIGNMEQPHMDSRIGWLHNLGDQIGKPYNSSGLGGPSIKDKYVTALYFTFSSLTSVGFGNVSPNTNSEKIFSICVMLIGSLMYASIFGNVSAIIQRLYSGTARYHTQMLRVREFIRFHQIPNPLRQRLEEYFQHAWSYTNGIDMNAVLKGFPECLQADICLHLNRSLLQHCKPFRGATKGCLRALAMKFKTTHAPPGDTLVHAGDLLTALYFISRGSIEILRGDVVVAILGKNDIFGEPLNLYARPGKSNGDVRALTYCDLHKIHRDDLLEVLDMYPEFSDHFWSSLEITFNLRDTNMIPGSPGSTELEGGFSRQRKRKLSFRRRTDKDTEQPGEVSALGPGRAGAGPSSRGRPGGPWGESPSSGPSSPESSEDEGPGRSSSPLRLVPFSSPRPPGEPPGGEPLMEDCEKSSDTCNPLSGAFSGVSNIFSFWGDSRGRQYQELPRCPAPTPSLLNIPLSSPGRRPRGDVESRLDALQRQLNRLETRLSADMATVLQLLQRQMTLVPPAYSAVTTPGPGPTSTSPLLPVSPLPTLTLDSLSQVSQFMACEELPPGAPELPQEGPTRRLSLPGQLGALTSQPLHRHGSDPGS
In the case of `Cc1ccc2c(c1)C(=C(C#N)C#N)C(=O)N2CCN1CCCCC1`, the “hERG current change (%, negative = inhibition) at 1uM” value is reported as 12.4%. With `CCOCCCNC(=O)C(c1ccc(OC)cc1)N(Cc1ccc2c(c1)OCO2)C(=O)CNC(C)=O` (stereo not shown) the “hERG current change (%, negative = inhibition) at 1uM” value was 8.75%. With `Cc1ccc(NC(=O)CCc2nnc3ccc(N4CCN(C)CC4)nn23)cc1F` the “hERG current change (%, negative = inhibition) at 1uM” value was 5.81%. `Cc1cc(N2C(=O)C(O)=C(C(=O)c3cc4ccccc4o3)C2c2ccc(Cl)cc2)no1` (stereo not shown) was tested, and the “hERG current change (%, negative = inhibition) at 1uM” value was 1.55%. In the case of `COc1ccc(NC(=O)CN2CCN(c3ccc(C)cc3C)CC2)cc1`, the “hERG current change (%, negative = inhibition) at 1uM” value is reported as 1.72%. In the case of `Cc1ccc(-n2cc(CN3CCN(Cc4nccn4C)CC3)c(-c3ccc(F)cc3)n2)cc1`, the “hERG current change (%, negative = inhibition) at 1uM” value is reported as 13.9%. `CCC(c1nnnn1C1CCCC1)N1CCN(c2ccccc2)CC1` (stereo not shown) was tested, and the “hERG current change (%, negative = inhibition) at 1uM” value was -0.0076%. In the case of `O=C(NC1CCCC1)C(c1cccs1)N(CC1CCCO1)C(=O)Cc1cccs1` (stereo not shown), the “hERG current change (%, negative = inhibition) at 1uM” value is reported as 3.73%. With `COc1ccc2[nH]cc(CC(=O)O)c2c1` the “hERG current change (%, negative = inhibition) at 1uM” value was 10.7%. `COc1cc2ccc(=O)oc2cc1O` was tested, and the “hERG current change (%, negative = inhibition) at 1uM” value was 15.7%. For `Cc1cccnc1NC(=O)c1cccc(NC(=O)CC2SC(N3CCCCC3)=NC2=O)c1` (stereo not shown), the “hERG current change (%, negative = inhibition) at 1uM” value was 9.66%. For `Cc1ccc2[nH]c3c(=O)n(N)c(C)nc3c2c1`, the “hERG current change (%, negative = inhibition) at 1uM” value was 14.2%. For `CC(=O)C1=C(C)NC(=O)NC1c1ccc(Cl)cc1` (stereo not shown), the “hERG current change (%, negative = inhibition) at 1uM” value was 14.9%. For `O=[N+]([O-])c1cc2c(cc1CN1CCN(c3ccc(F)cc3)CC1)OCO2`, the “hERG current change (%, negative = inhibition) at 1uM” value was 7.89%. In the case of `COCCn1c(=O)c2c(nc3n2CCCN3CCc2ccccc2)n(C)c1=O`, the “hERG current change (%, negative = inhibition) at 1uM” value is reported as -2.49%. In the case of `O=C1NC(=S)N(c2ccccc2)C(=O)/C1=C/c1ccco1`, the “hERG current change (%, negative = inhibition) at 1uM” value is reported as 5.88%. With `CC(=O)Oc1cc(O)c2c(c1)OC(c1ccc(OC(C)=O)c(OC(C)=O)c1)C(OC(C)=O)C2=O` (stereo not shown) the “hERG current change (%, negative = inhibition) at 1uM” value was 6.57%. `Cn1c(C(=O)N2CCCC(C(=O)NCCN3CCOCC3)C2)cc2sccc21` (stereo not shown) was tested, and the “hERG current change (%, negative = inhibition) at 1uM” value was 7.87%. In the case of `CC(C)NC(=S)NNc1ncnc2sc3c(c12)CC(C)(C)OC3`, the “hERG current change (%, negative = inhibition) at 1uM” value is reported as 6.89%. For `CC(C)(C)OC(=O)NC(CO)c1cn([C@@H](Cc2cc3ccccc3[nH]2)C(=O)N2CCN(C(=O)OC(C)(C)C)CC2)nn1` (stereo partly shown), the “hERG current change (%, negative = inhibition) at 1uM” value was 4.76%. `COC(=O)c1cccc(NC(=O)C(C)N2C(=O)c3ccccc3C2=O)c1` (stereo not shown) was tested, and the “hERG current change (%, negative = inhibition) at 1uM” value was 11.2%. With `COC(=O)C1=C(c2ccc(Cl)c(C(F)(F)F)c2)C[C@@H]2CC[C@H]1N2C(=O)NC(C)C` the “hERG current change (%, negative = inhibition) at 1uM” value was 10.9%. In the case of `Cn1c(=O)c2c(nc(SCC(=O)NCc3ccc4c(c3)OCO4)n2Cc2ccc(Cl)cc2)n(C)c1=O`, the “hERG current change (%, negative = inhibition) at 1uM” value is reported as -6.76%. With `Cc1ccnc(N2C3CCC2CC(O)(c2ccccc2)C3)n1` (stereo not shown) the “hERG current change (%, negative = inhibition) at 1uM” value was 15.6%. In the case of `Cc1cc(C)n2nc(C(=O)Nc3ccc4c(c3)OCCO4)nc2n1`, the “hERG current change (%, negative = inhibition) at 1uM” value is reported as 13.3%. `CC(C)C(=O)Nc1nnc(S(=O)(=O)N2CCCCCC2)s1` was tested, and the “hERG current change (%, negative = inhibition) at 1uM” value was 19.5%. With `CCOc1cc2[nH]c(=S)n(CCCOC)c(=O)c2cc1OCC` the “hERG current change (%, negative = inhibition) at 1uM” value was -15.1%. `COc1cccc(Nc2cc(C)c3ccccc3n2)c1` was tested, and the “hERG current change (%, negative = inhibition) at 1uM” value was 11.1%. With `Cc1cc(C)n(-c2ccc(S(=O)(=O)N3CCOCC3)cc2[N+](=O)[O-])n1` the “hERG current change (%, negative = inhibition) at 1uM” value was -3.05%. In the case of `O=c1c2oc3ccccc3c2[nH]c(=S)n1-c1ccccc1`, the “hERG current change (%, negative = inhibition) at 1uM” value is reported as 12.8%. With `CSc1ccccc1NC(=S)Nc1ccc(S(N)(=O)=O)cc1` the “hERG current change (%, negative = inhibition) at 1uM” value was 22%. `CCC(CC)c1nnc(NC(=O)CCc2ccc(OC)cc2)s1` was tested, and the “hERG current change (%, negative = inhibition) at 1uM” value was 11.9%. With `CCCCCCCC/C=C\CCCCCCCC(=O)NCCc1ccc(O)c(O)c1` the “hERG current change (%, negative = inhibition) at 1uM” value was 12.8%. With `COC(=O)c1[nH]c(C)c(/C(O)=C2\C(=O)C(=O)N(CCN3CCOCC3)C2c2cccnc2)c1C` (stereo not shown) the “hERG current change (%, negative = inhibition) at 1uM” value was -5.77%. `O=C(Nc1ccccc1)c1cccc(NC(=O)c2ccco2)c1` was tested, and the “hERG current change (%, negative = inhibition) at 1uM” value was 12.7%. For `COc1ccc(/C=N/NC(=O)c2cc(=O)[nH]c3ccccc23)cc1OC`, the “hERG current change (%, negative = inhibition) at 1uM” value was 9.86%. In the case of `CCOc1ccc(S(=O)(=O)Nc2ccc(C(=O)NCCCN3CCOCC3)cc2)cc1`, the “hERG current change (%, negative = inhibition) at 1uM” value is reported as -4.89%. In the case of `COC(=O)c1ccc(N2Cc3ccccc3/C2=N\C(=O)Nc2ccccc2)cc1`, the “hERG current change (%, negative = inhibition) at 1uM” value is reported as 10.8%. In the case of `COC(=O)C1=C(c2ccccc2OCc2ccccc2)C[C@@H]2CC[C@H]1N2C(=O)NCCOc1ccc(OC)cc1`, the “hERG current change (%, negative = inhibition) at 1uM” value is reported as 15.4%. With `COc1ccc(NC(=O)c2sc3cc(C(F)(F)F)cnc3c2-c2cccs2)cc1` the “hERG current change (%, negative = inhibition) at 1uM” value was -6.02%. With `CCc1ccc(-c2csc(NC(=O)C3=COCCO3)n2)cc1` the “hERG current change (%, negative = inhibition) at 1uM” value was 11.6%. In the case of `Cc1cc2oc(C(=O)N(Cc3ccc(N(C)C)cc3)CC3CCCO3)c(C)c2cc1C` (stereo not shown), the “hERG current change (%, negative = inhibition) at 1uM” value is reported as 11.6%. `COc1cc(/C=C/C(=O)OCC(=O)NCc2ccccc2OC)ccc1O` was tested, and the “hERG current change (%, negative = inhibition) at 1uM” value was 9.6%.
